# Test results: PubChem BioAssay (Tox21)
# Values joined by “and” are separate entries in the source; they are usually repeats but may differ in a detail not shown here. Equal values may be shown once. Inconclusive results, whose numbers are uncertain, are shown with a selection of clear calls. For part of these data: Potencies beside an inconclusive call are fits to weak or partial responses and may not hold up. Active and inactive are the calls of the source. Unless noted, calls come from the whole dose curve; as a rule, active = well fitted curve in the direction sought with a large enough effect in the repeat runs; inconclusive = weak or mixed curves; inactive = no such curve, though single readings can be large; an effect the other way counts as inactive or inconclusive.
# Columns and labels:
# [1] = qHTS assay to identify small molecule antagonists of the glucocorticoid receptor (GR) signaling pathway - cell viability counter screen (AID 720693); conditions: GR-bla HeLa viability, CellTiter-Glo luminescence, 18 h, with 5 nM dexamethasone present; viability change, negative = cytotoxic: at 58.5 µM (top of the series) unless noted; note: nearly all actives have a fitted effect of over 55% in size
# [2] = qHTS assay to identify small molecule antagonists of the androgen receptor (AR) signaling pathway - cell viability counter screen (AID 743033; note: nearly all actives have a fitted effect of over 45% in size); conditions: AR-bla HEK293 viability, CellTiter-Glo luminescence, 16 h; activity change, negative = cytotoxicity: at 58.5 µM (top of the series) unless noted
# [3] = molecular target: Androgen receptor (Homo sapiens) (UniProt P10275); test: qHTS assay to identify small molecule antagonists of the androgen receptor (AR) signaling pathway (AID 743035; active = well fitted inhibition curve with a large enough effect in the signal ratio in the repeat runs, not every such curve was filed as active; inconclusive = weak or mixed curves, or effect the other way; inactive = no such curve, though single readings can be large or run the other way; the % refers to the signal ratio); conditions: HEK293 AR-UAS-bla, R1881-stimulated, beta-lactamase FRET, 16 h; activity change, negative = inhibition: at 58.5 µM (top of the series) unless noted
# Summary of the method: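 Reporter HEK293 cells were exposed to compounds and R1881 overnight (16 h, 37C); beta-lactamase activity was then quantified by FRET fluorescence.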
# [4] = qHTS assay for identifying genotoxic compounds that show differential cytotoxicity against isogenic chicken DT40 cell lines with known DNA damage response pathways - Rev3 mutant cell line (AID 743014); conditions: chicken DT40 Rev3-/- viability, CellTiter-Glo, 40 h; activity, negative = cytotoxicity: at 68.4 µM (top of the series) unless noted; note: nearly all actives have a fitted effect of over 55% in size
# [5] = qHTS assay for identifying genotoxic compounds that show differential cytotoxicity against isogenic chicken DT40 cell lines with known DNA damage response pathways - Rad54/Ku70 mutant cell line (AID 743015); conditions: DT40 Rad54/Ku70 mutant viability, CellTiter-Glo, 40 h; activity change, negative = cytotoxicity: at 66.8 µM (top of the series); note: nearly all actives have a fitted effect of over 60% in size
# [6] = qHTS assay for identifying genotoxic compounds that show differential cytotoxicity against isogenic chicken DT40 cell lines with known DNA damage response pathways - wild type cell line (AID 743012); conditions: DT40 wild type chicken cells viability, CellTiter-Glo, 40 h; for Potency: activity change, negative = cytotoxicity: at 68.4 µM (top of the series) unless noted; for all read-outs here: nearly all actives have a fitted effect of over 60% in size
# Summary of the method: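 Viability of DNA repair-proficient chicken DT40 cells was assessed by CellTiter-Glo luminescence following 40 h compound exposure at 37 C/5% CO2.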
# % is set by controls: 0 for no effect and ±100 for the full control effect; potency is the fitted concentration of half-maximal effect; tags give direction and shape of the fitted curve.
# Sequence of UniProt P10275 (P10275 whole entry, looked up): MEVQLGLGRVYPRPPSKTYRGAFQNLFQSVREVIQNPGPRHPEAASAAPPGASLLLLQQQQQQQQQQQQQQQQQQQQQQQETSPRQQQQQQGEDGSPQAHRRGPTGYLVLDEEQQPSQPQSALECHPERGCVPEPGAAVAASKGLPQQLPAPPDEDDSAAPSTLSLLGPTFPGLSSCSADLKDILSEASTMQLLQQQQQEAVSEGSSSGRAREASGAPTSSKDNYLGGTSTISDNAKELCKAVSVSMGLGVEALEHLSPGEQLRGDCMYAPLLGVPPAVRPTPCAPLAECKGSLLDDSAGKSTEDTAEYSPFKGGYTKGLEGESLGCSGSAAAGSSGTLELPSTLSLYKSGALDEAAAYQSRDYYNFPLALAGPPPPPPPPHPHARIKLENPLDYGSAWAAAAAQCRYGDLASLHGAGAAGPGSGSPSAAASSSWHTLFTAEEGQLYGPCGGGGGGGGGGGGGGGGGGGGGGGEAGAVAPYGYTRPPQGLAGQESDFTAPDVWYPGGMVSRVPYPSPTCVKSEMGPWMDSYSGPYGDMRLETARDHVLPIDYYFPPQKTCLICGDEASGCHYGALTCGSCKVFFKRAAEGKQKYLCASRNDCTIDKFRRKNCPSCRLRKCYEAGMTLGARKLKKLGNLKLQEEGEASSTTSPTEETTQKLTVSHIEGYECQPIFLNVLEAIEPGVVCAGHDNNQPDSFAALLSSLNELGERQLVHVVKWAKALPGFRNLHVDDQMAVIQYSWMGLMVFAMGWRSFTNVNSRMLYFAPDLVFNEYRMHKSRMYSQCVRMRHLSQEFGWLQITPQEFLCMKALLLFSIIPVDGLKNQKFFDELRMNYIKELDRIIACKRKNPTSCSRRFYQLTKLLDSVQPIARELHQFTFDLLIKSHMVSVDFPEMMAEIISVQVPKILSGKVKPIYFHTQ
compound,measurement,setting,value
NC(N)=N/N=C/c1c(Cl)cccc1Cl,Potency,[1],inactive
same,Potency,[2],"inconclusive: 6.74 µM [cytotoxic, full curve, poor fit]"
same,"activity change, negative = inhibition",[3],inconclusive: -4.32%
CC[C@]12CCCN3CCc4c(n(c5ccccc45)C(=O)C1)[C@@H]32,Potency,[1],"inconclusive: 10.2 µM [cytotoxic, single point]"
same,Potency,[4],active: 4.52 µM
same,Potency,[5],active: 7.17 µM
same,Potency,[3],active: 9.1 µM
Cn1c(=O)c2[nH]cnc2n(C)c1=O,Potency,[1],"inconclusive: 62.5 µM [cytotoxic, single point]"
same,Potency,[2],"inconclusive: 10.7 µM [rising, single point]"
CN(C)C/C=C(/c1ccc(Br)cc1)c1cccnc1,Potency,[1],inactive
same,Potency,[4],"inconclusive: 33.5 µM [cytotoxic, single point]"
same,Potency,[5],"inconclusive: 33.5 µM [cytotoxic, single point]"
O=C(O)c1ccccc1-c1ccc(C(F)(F)F)cc1,Potency,[1],inactive
same,Potency,[2],inactive
CCC(Cc1ccccc1)(C(=O)c1ccc(N2CCOCC2)cc1)N(C)C (configuration not stated),"viability change, negative = cytotoxic",[1],inconclusive: 30.3%
same,Potency,[4],active: 4.33 µM
CC/C=C\CCOC(C)OCC (configuration not stated),Potency,[1],inactive
same,Potency,[4],inactive
Nc1ccc(S(=O)(=O)c2ccc(N)cc2)cc1,Potency,[1],inactive
CCCCCCCN,Potency,[1],inactive
NC1CCN(c2cccc(Cl)n2)CC1,Potency,[1],"inconclusive: 23.9 µM [cytotoxic, single point]"
same,Potency,[6],"inconclusive: 11.9 µM [cytotoxic, partial curve]"
same,Potency,[4],"inconclusive: 5.96 µM [cytotoxic, full curve]"
same,Potency,[5],inconclusive: 23.7 µM [cytotoxic]
same,Potency,[3],inactive
OC[C@H]1O[C@@H](OCCc2ccc(O)cc2)[C@H](O)[C@@H](O)[C@@H]1O,Potency,[1],inactive
same,Potency,[4],inactive
same,Potency,[5],inactive
C=C(C)C(=O)OCCOP(=O)(O)O,Potency,[1],inactive
same,Potency,[6],"inconclusive: 13.5 µM [rising, partial curve, poor fit]"
CCN(CC)CCNC(C(=O)OCCC(C)C)c1ccccc1 (configuration not stated),Potency,[1],inactive
same,Potency,[6],active: 26.6 µM
same,Potency,[4],"inconclusive: 6.68 µM [cytotoxic, full curve]"
same,Potency,[5],inconclusive: 29.8 µM [cytotoxic]
Fc1ccccc1-c1ccccc1,Potency,[6],inactive
CCCOCC(C)O (configuration not stated),Potency,[1],"inconclusive: 0.871 µM [rising, single point]"
same,"activity change, negative = inhibition",[3],inconclusive: 7.81%
CCOCCOCCOCCO,Potency,[1],"inconclusive: 54.9 µM [cytotoxic, partial curve, poor fit]"
same,Potency,[5],"inconclusive: 68.6 µM [cytotoxic, single point]"
CCCCCCCCNC,"viability change, negative = cytotoxic",[1],inconclusive: 34.4%
same,Potency,[5],inactive
CC(C)(O)C(=O)O,Potency,[1],inactive
O=C(CCN1CCN2CCCC2C1)N1c2ccccc2Sc2ccc(Cl)cc21 (configuration not stated),Potency,[1],"inconclusive: 23.9 µM [rising, partial curve, poor fit]"
same,Potency,[4],active: 11.9 µM
same,"activity change, negative = inhibition",[3],inconclusive: 8.09%
CC(C)(C)Cl,Potency,[1],inactive
CCC(C)C(C)=O (configuration not stated),Potency,[1],"inconclusive: 53.7 µM [rising, single point]"
same,Potency,[4],inactive
C=COCCCCO,Potency,[1],inactive
same,Potency,[4],inactive
C=C(C)C(=O)O[C@H]1C[C@@H]2CC[C@@]1(C)C2(C)C,Potency,[1],inactive
same,Potency,[4],"inactive and inconclusive: 30.6 µM [cytotoxic, partial curve]"
same,Potency,[5],"inconclusive: 61.1 µM [cytotoxic, partial curve, poor fit]"
NS(=O)(=O)c1cc2c(cc1Cl)NCNS2(=O)=O,"activity change, negative = cytotoxicity",[6]; at 68.4 µM (top of the series),inactive: 16.5% and inactive: 5.92%
Oc1c(Cl)ccc(Cl)c1Cl,Potency,[6],"inconclusive: 15.3 µM [rising, full curve]"
same,Potency,[4],"inconclusive: 68.6 µM [cytotoxic, single point]"
same,Potency,[5],"inconclusive: 54.5 µM [cytotoxic, partial curve]"
